PubChem BioAssay AID360 (National Center for Advancing Translational Sciences (NCATS), 2006)
In all, about 48,000 compounds went through this assay and about 550 (1.1%) were called active. Another 4% or so got no clear call; they are omitted. Rule as the data show it: active = potency below about 15 µM; inconclusive = mostly about 16 µM to 33 µM; inactive = weaker than that. This is one part of the list.

biological target: Lysosomal acid glucosylceramidase (Homo sapiens) (UniProt P04062); experiment: Glucocerebrosidase; settings: purified enzyme, resorufin glucoside fluorescence (screen aimed at inhibitors), 20 min; series mostly up to 77 µM;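 also: the screen sought inhibitors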
Sequence of UniProt P04062 (P04062 whole entry, looked up): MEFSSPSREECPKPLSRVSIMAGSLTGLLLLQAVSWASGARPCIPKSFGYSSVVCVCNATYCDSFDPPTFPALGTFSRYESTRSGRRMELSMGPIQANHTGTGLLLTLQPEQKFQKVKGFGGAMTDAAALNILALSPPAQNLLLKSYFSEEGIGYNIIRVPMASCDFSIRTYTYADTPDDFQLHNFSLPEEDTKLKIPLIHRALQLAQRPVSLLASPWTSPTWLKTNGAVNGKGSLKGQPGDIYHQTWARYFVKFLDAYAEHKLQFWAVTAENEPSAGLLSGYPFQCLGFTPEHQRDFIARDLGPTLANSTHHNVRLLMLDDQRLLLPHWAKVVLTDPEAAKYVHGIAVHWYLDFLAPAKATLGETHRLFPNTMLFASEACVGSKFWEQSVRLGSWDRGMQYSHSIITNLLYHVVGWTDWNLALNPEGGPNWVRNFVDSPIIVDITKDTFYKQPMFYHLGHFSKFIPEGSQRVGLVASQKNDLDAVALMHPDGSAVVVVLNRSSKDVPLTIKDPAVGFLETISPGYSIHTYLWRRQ
Outline: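 Wild-type enzyme at 0.2 nM final in 50mM citric acid/KH2PO4, 10mM sodium taurocholate, 0.01% tween-20, pH 5.9, with resorufin beta-D-glucopyranoside at 30 uM final. Compounds titrated, 20 min at RT, red fluorescence read; AC50 from titration.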
Potency is read from the fitted curve at half-maximal effect.

Potency, inactive:
Cc1nc2nc(-c3cccs3)cn2nc1C > 76.9 µM
FC(F)(F)c1ccc(-n2ccnc2)nc1 > 76.9 µM
CCC1(C)Cc2ccccc2/C(=C/C(=O)N2CCCCC2)N1 (stereo unspecified) > 15.4 µM
CCOC(=O)c1c(-c2cccs2)csc1NC(=O)c1ccco1 > 76.9 µM
Cc1ccc(NC(=O)CSc2n[nH]c(-c3ccncc3)n2)cc1 > 76.9 µM
CCC(=O)N1c2ccc(S(=O)(=O)CCC(=O)N3CCn4c3nc3ccccc34)cc2CC1C (stereo unspecified) > 76.9 µM
CC1(C)Cc2nc3sc4c(=O)[nH]cnc4c3cc2CS1 > 76.9 µM
Cc1ccc(-n2c(=O)cc(N3CCc4ccccc4C3)[nH]c2=O)cc1 > 76.9 µM
CN(c1ccccc1C(=O)Nc1ccc2c(c1)OCO2)S(C)(=O)=O > 76.9 µM
O=C(c1ccc(S(=O)(=O)N2CCCCC2)cc1)N1CCCc2ccccc21 > 76.9 µM
Cc1nnc2sc(-c3ccncc3)nn12 > 76.9 µM
CCn1cnc2c1c(=O)n(Cc1csc(-c3ccccc3)n1)c(=O)n2Cc1ccccc1 > 76.9 µM
COc1ccccc1-c1nnc(SCC(=O)N2CC(C)CC(C)C2)o1 (stereo unspecified) > 76.9 µM
Cc1ccc(C)c(N2CCN(c3cc(C)nc4nnnn34)CC2)c1 > 76.9 µM
Cc1ccc(-c2cc(-c3ccc(C)o3)nc(N)c2C#N)cc1 > 76.9 µM
Cc1ccccc1NC(=O)CSc1nnc(-c2ccoc2C)n1CCc1ccccc1 > 76.9 µM
O=S(=O)(Nc1ccc2c(c1)OCCO2)c1cccs1 > 76.9 µM
Cc1ccc(S(=O)(=O)N2CCCC(c3nnc4n3-c3ccccc3SC4)C2)cc1 (stereo unspecified) > 76.9 µM
CCOC(=O)c1cnn(CCOC(=O)C2CC2)c1NC(=O)C1CC1 > 76.9 µM
COC(=O)c1ccc(NC(=O)Cc2ccccc2)cc1 > 76.9 µM
COCC(C)n1c(C)cc(C(=O)COc2ccc(S(=O)(=O)N3CCOCC3)cc2Cl)c1C (stereo unspecified) > 76.9 µM
CCCC(=O)N=C1SC2CS(=O)(=O)CC2N1c1ccc(CC)cc1 (stereo unspecified) > 76.9 µM
COc1ccc(OCC(O)CNC(=O)c2ccc(Br)cc2)cc1 (stereo unspecified) > 76.9 µM
Cc1ccsc1C(=O)Nc1ccc(C(=O)O)cc1 > 76.9 µM
Cc1cc(=O)n2nc(N3CCCC(C(=O)NCc4ccco4)C3)sc2n1 (stereo unspecified) > 76.9 µM
CCC(=O)N1CCN(c2ccccc2NC(=O)Cc2ccc(Cl)cc2)CC1 > 76.9 µM
Cc1cc(C)nc(SCc2nc(N)nc(-c3ccccc3O)n2)n1 > 76.9 µM
COc1ccc(OC)c(NC(=O)C2CCCN(S(=O)(=O)c3c(C)noc3C)C2)c1 (stereo unspecified) > 76.9 µM
CCCCS(=O)(=O)C(=C1Nc2ccccc2N1)S(=O)(=O)CCCC > 76.9 µM
S=c1nc(-c2ccccc2)n(CCCN2CCOCC2)c2c1CCCC2 > 76.9 µM
O=C(CN1CCN(c2ccc(F)cc2)CC1)N1CCOCC1 > 76.9 µM
Cc1cc(C)nc(SCC(=O)Nc2ccc(N3CCOCC3)c(Cl)c2)n1 > 76.9 µM
CCCc1[nH]nc2c1C(c1cc(OC)cc(OC)c1)C(C#N)=C(N)O2 (stereo unspecified) > 76.9 µM
O=C(CN1CCCC1)Nc1ccc(NC(=O)Nc2ccccc2)cc1
CCCCn1nnnc1NCc1cccnc1 > 76.9 µM
O=C(Cc1nn[nH]n1)NCc1ccccc1Cl > 76.9 µM
COc1ccccc1NC(=O)c1cc(C(=O)O)ccc1C(=O)O > 76.9 µM
O=C(CSc1nnc(CNc2ccccc2)o1)N1CCN(C(=O)c2ccco2)CC1 > 76.9 µM
Cn1c(=O)oc2cc(S(=O)(=O)N3CCN(Cc4ccc5c(c4)OCO5)CC3)ccc21 > 76.9 µM
Oc1cnc2ccccc2c1CN1CCOCC1 > 76.9 µM
CC[C@H](C)[C@H](NS(=O)(=O)c1ccc(C)cc1)C(=O)N1CCC(C(=O)N[C@H](C(=O)O)C(C)C)CC1 > 76.9 µM
COCC(=O)N(Cc1ccccc1)c1ccccn1 > 76.9 µM
S=c1[nH]nc(-c2ccccc2)n1CC1CCCO1 (stereo unspecified) > 76.9 µM
COc1ccccc1-n1c(C)nnc1SCC(=O)Nc1cccc(C(C)=O)c1 > 76.9 µM
O=C(NCC(F)(F)F)Nc1ncccn1 > 76.9 µM
C=CCN(C(=O)CN1CCOCC1)c1nc(C)c(-c2ccccc2)s1 > 76.9 µM
C/C=C/c1ccc(OCCCN2C(=O)NC(C)(C)C2=O)c(OC)c1 > 76.9 µM
CC(=O)N1CCN(S(=O)(=O)c2cccc(C(=O)Nc3ccc4c(c3)CCC4)c2)CC1 > 76.9 µM
COc1ccc2nc(NC(=O)C(NS(=O)(=O)c3cccs3)C(C)C)sc2c1 (stereo unspecified) > 76.9 µM
CCc1c(C)c2ccc(O)c(CN(C)C)c2oc1=O > 76.9 µM
COc1cccc(N2CCN(C3OC(=O)c4ccccc43)CC2)c1 (stereo unspecified) > 76.9 µM
COc1cc(C2=NOC(C(=O)N3CCN(c4ccc(F)cc4)CC3)C2)cc(OC)c1OC (stereo unspecified) > 76.9 µM
CC(=O)N1CC=C2C(C#N)=C(N)C(C#N)(C#N)C(C)C2C1 (stereo unspecified) > 76.9 µM
N#Cc1cc2c(nc1SCC(O)CS(=O)(=O)Cc1ccccc1)CCCC2 (stereo unspecified) > 76.9 µM
O=C(NCC1COc2ccccc2O1)c1cn(Cc2ccc(F)cc2)nn1 (stereo unspecified) > 76.9 µM
CCOC(=O)c1ccc(Cn2c(-c3ccccc3)nnc2-c2ccccc2)o1 > 15.4 µM
CN1CCN(C(=O)c2cnn(-c3ccccc3)c2NC(=O)c2cccs2)CC1 > 76.9 µM
Nc1c(S(=O)(=O)c2cccs2)c2nc3ccccc3nc2n1/N=C/c1cccc(O)c1 > 76.9 µM
CCOc1ccc(-n2nc(C(=O)N3CCOCC3)c3ccccc3c2=O)cc1 > 76.9 µM
CN(C)c1cccc(N=C2C=C(N3CCOCC3)CC(C)(C)C2)c1 > 76.9 µM
CC(=O)N1CCN(C(=O)CCc2c[nH]c3ccccc23)CC1 > 76.9 µM
COc1ccc(N2CCN(C(=O)CSc3nnnn3-c3ccc4c(c3)OCCO4)CC2)cc1 > 76.9 µM
CCOc1ccccc1-n1c(CN2CCN(C(=O)c3ccco3)CC2)nc2ccccc2c1=O > 76.9 µM
CCOc1cccc2cc(C(=O)N3CCN(C/C=C/c4ccccc4)CC3)c(=O)oc12 > 76.9 µM
O=C(O)CCC(NS(=O)(=O)c1ccc(-c2ccccc2)cc1)C(=O)O (stereo unspecified) > 76.9 µM
O=C(NCCN1CCOCC1)c1cc(-c2ccccc2)on1 > 76.9 µM
CSC1=C(C#N)C(c2ccc(C)cc2)C2=C(CCCC2=O)N1 (stereo unspecified)
CCOC(=O)c1c(Nc2nc(C)c(C(=O)NC)s2)sc(C)c1C > 76.9 µM
N#CCSCC(=O)Nc1ccccc1 > 76.9 µM
CC1CCC/C(=C\Nc2ccccc2C(=O)O)C1=O (stereo unspecified) > 76.9 µM
Cc1ccccc1NC(=O)Cn1c(C)nc2ccc(NC(=O)C3CC3)cc2c1=O > 76.9 µM
COC(=O)N1CCN(S(=O)(=O)c2ccc(F)cc2)CC1 > 76.9 µM
CC(=O)c1ccc(OCCCC(=O)NCC(c2ccco2)N(C)C)cc1 (stereo unspecified) > 76.9 µM
N#CCSc1nnc(Cc2ccc3c(c2)OCO3)o1 > 76.9 µM
Cc1cccc(NC(=O)c2cc(NC(=O)C3CC=CCC3C(=O)O)ccc2N2CCOCC2)c1 (stereo unspecified) > 76.9 µM
Cc1ccc(NS(=O)(=O)c2cccc(C(=O)n3ncc(C#N)c3N)c2)c(C)c1 > 76.9 µM
Nc1nc(-c2cccnc2)nn1C(=O)c1ccco1 > 76.9 µM
CCCCOc1ccc(NC(=O)CN2CCN(C(=O)OCC)CC2)cc1 > 76.9 µM
CC(=O)c1c(C)[nH]c(C(=O)OCC(=O)Nc2cc(C)on2)c1C > 76.9 µM
Cc1cc2nc(C)n3c4ccccc4nc3n2n1 > 76.9 µM
Fc1ccc(-c2cc(C(F)(F)F)nc(-n3cncn3)n2)cc1 > 76.9 µM
CCCS(=O)(=O)N1CCCC(C(=O)NCCCN2CCCC2=O)C1 (stereo unspecified) > 76.9 µM
Cc1ccccc1NC(=O)CSc1nc(Nc2ccccc2)nc(N2CCOCC2)n1 > 76.9 µM
Cc1nnc(SCC(=O)Nc2nccs2)s1 > 76.9 µM
CCc1nc2cc(C)nn2c2nc3ccccc3n12 > 76.9 µM
CCN1CCCC1CNC(=O)c1ccc(N2CCCC2=O)cc1 (stereo unspecified) > 76.9 µM
CCn1c(SCC(=O)NC(=O)Nc2ccc3c(c2)OCCO3)nnc1-c1cccs1 > 76.9 µM
CC(OC(=O)c1cc2sccc2n1C)C(=O)NCc1cccs1 (stereo unspecified) > 76.9 µM
COc1cc(C(=O)O)nc2ccccc12 > 76.9 µM
Cc1cc(C)c(S(=O)(=O)N2CCN(c3nc4c(c(=O)n(C)c(=O)n4C)n3C)CC2)c(C)c1 > 76.9 µM
CCCN1CCCc2cc(CN)ccc21 > 76.9 µM
